{
  "source": "ChEMBL document CHEMBL4888484",
  "about": "“Replenishing the malaria drug discovery pipeline: Screening and hit evaluation of the MMV Hit Generation Library 1 (HGL1) against asexual blood stage Plasmodium falciparum ,using a nano luciferase reporter read-out” (2022)",
  "note": "In all, about 150,000 compounds went through this assay and about 540 (0.36%) showed an effect of 50% or more. The list shows a part of the results.",
  "data": [
    {"system": "Plasmodium falciparum", "assay": "Primary screen in NF54 nanoGlo assay, in single point, at 2uM, 72h; a lower Z score goes with more inhibition", "format": "functional, Erythrocyte", "conditions": "timepoint 72 hour", "units": {"% Inhibition": "%"}, "values": [
      {"smiles": "Fc1cccc(-c2nc(-c3cnccn3)no2)c1", "% Inhibition": 6, "Z score": -0.66},
      {"smiles": "COc1ccc(NC(=O)CCc2c(-c3ccc(C)cc3)nc3ccc(-c4cccc(C)c4)cn23)cc1", "% Inhibition": 6, "Z score": -0.91},
      {"smiles": "Cc1cc(C)cc(N[C@@H](C)C(=O)Nc2nnc(C)s2)c1", "% Inhibition": -29, "Z score": 3.42},
      {"smiles": "CCCCN(CC(N)=O)CC(=O)N1CCO[C@@H](C)C1", "% Inhibition": 0, "Z score": -0.05},
      {"smiles": "C[C@H]1CCS(=O)(=O)CCN1Cc1ccc(-n2cccn2)cc1", "% Inhibition": -10, "Z score": 1.84},
      {"smiles": "Cc1cc(C)n(-c2ccc(Cn3cnc4c(c3=O)CCC4)cc2)n1", "% Inhibition": -8, "Z score": 1.2},
      {"smiles": "CC(C)C[C@H](C)OC(=O)N(C)Cc1nnc2n1CCNC2=O", "% Inhibition": -19, "Z score": 3},
      {"smiles": "CCO[C@@H](C)c1nc(CN(C)C(=O)c2ccc(C)o2)cs1", "% Inhibition": -5, "Z score": 0.85},
      {"smiles": "CCCC(=O)Nc1nc2ncccc2cc1C(=O)OCC", "% Inhibition": -5, "Z score": 0.44},
      {"smiles": "Cc1cc(Br)oc1C(=O)N1CC[C@@](F)(C(=O)O)C1", "% Inhibition": -6, "Z score": 0.76},
      {"smiles": "CN(C)CC[C@@H](c1ccccc1)n1ccnc1-c1ccco1", "% Inhibition": 4, "Z score": -0.58},
      {"smiles": "Cc1ncc(C(=O)N2CCC(Cc3nccn3C)CC2)c(C)n1", "% Inhibition": -3, "Z score": 0.61},
      {"smiles": "O=C(NC(N1CCCC1=O)(C(F)(F)F)C(F)(F)F)c1ccco1", "% Inhibition": 41, "Z score": -4.68},
      {"smiles": "O=C1CN(C(=O)Nc2ccc3c(c2)OC2(CCCCC2)O3)CCN1", "% Inhibition": -3, "Z score": 0.34},
      {"smiles": "Cc1noc(C)c1CN(C)Cc1ncc(Cl)n1C", "% Inhibition": -2, "Z score": 0.21},
      {"smiles": "NC(=O)C(NC1CCc2cc(F)ccc21)c1ccccc1", "note": "(stereo not drawn)", "% Inhibition": -11, "Z score": 2.12},
      {"smiles": "CCn1nccc1C(=O)N[C@H]1CCN(c2ncnc3c2CCC3)C1", "% Inhibition": -10, "Z score": 1.74},
      {"smiles": "COc1ccc(C)cc1S(=O)(=O)NC1Cc2ccccc2C1O", "note": "(stereo not drawn)", "% Inhibition": -12, "Z score": 1.02},
      {"smiles": "Clc1ccc(CN2CCN(c3nc4ccccc4c4nnc(-c5ccco5)n34)CC2)cc1", "% Inhibition": 13, "Z score": -1.39},
      {"smiles": "Cc1cc(C)nc(/N=C(/NC(=O)c2ccccc2)N2CCC(C(N)=O)CC2)n1", "% Inhibition": -8, "Z score": 1.13},
      {"smiles": "N#Cc1cnc2ccc(F)cc2c1N1CCC(C(=O)Nc2ccc(Cl)cc2)CC1", "% Inhibition": -8, "Z score": 1.17},
      {"smiles": "COc1ccc(OC)c(S(=O)(=O)N2C[C@H]3CCCC(=O)N[C@H]3C2)c1", "% Inhibition": 36, "Z score": -0.83},
      {"smiles": "CCN1CCN(C2(C(=O)N3CCC(COC)CC3)Cc3ccccc3C2)CC1", "% Inhibition": -5, "Z score": 0.79},
      {"smiles": "Cc1nn(CC(=O)N2CCc3ncccc3C2)c(=O)n1CCc1ccccc1", "% Inhibition": -4, "Z score": 0.68},
      {"smiles": "CC1(C)COCN1C(=O)c1ccc(C#N)cc1", "% Inhibition": -5, "Z score": 0.61},
      {"smiles": "COC[C@H](NC(=O)NCCN1CCN(C)C(C)(C)C1)C1CC1", "% Inhibition": 6, "Z score": -0.82},
      {"smiles": "O=C(Cn1nnc2ccccc21)c1ccccc1", "% Inhibition": -12, "Z score": 1.78},
      {"smiles": "COc1ccc2c(c1)CCc1c(C(=O)Nc3ccc4nc(NS(C)(=O)=O)sc4c3)n[nH]c1-2", "% Inhibition": 1, "Z score": -0.06},
      {"smiles": "Cc1cc(N[C@H](c2nc(C)cs2)C2CC2)nc(C)n1", "% Inhibition": -2, "Z score": 0.25},
      {"smiles": "COCC1(CNS(=O)(=O)c2ccc(NS(=O)(=O)N(C)C)cc2)CCC1", "% Inhibition": -3, "Z score": 0.34},
      {"smiles": "O=C(N[C@H]1CCc2nccn2C1)c1cc2ccccc2o1", "% Inhibition": 4, "Z score": -0.58},
      {"smiles": "CCc1sc(C(=O)N[C@H](CO)CN2CCCC2)cc1C", "% Inhibition": -8, "Z score": 0.91},
      {"smiles": "Cc1c(CN2CCC([C@H](Cc3ccccc3Cl)N(C)C(=O)c3ccco3)CC2)cnn1C", "% Inhibition": -1, "Z score": 0.14},
      {"smiles": "O=C1c2c(c3cc(Cl)ccc3n2Cc2ccccc2)CCC1(Cc1ccccc1)Cc1ccccc1", "% Inhibition": -26, "Z score": 3.37},
      {"smiles": "Cc1c(C(=O)NC[C@@H]2CC[C@H](C)N2C)nnn1C(C)C", "% Inhibition": 3, "Z score": -0.61},
      {"smiles": "CCc1nc(-c2cc(C(F)F)n[nH]2)n(Cc2ccccc2Cl)n1", "% Inhibition": -9, "Z score": 1.82},
      {"smiles": "Cc1nc2ncccn2c1C(=O)NC(Cc1ccccn1)[C@H]1C[C@H](O)C1", "note": "(stereo partly drawn)", "% Inhibition": -12, "Z score": 1.42},
      {"smiles": "O=C(N[C@H]1CCN(Cc2ccsc2)C[C@@H]1O)c1cccnc1", "% Inhibition": -6, "Z score": 1.06},
      {"smiles": "CN(c1ccc(C(=O)O)cn1)[C@H](CO)Cc1ccccc1", "% Inhibition": 1, "Z score": -0.19},
      {"smiles": "CCCc1cc(=O)[nH]c(N/C(=N/C(=O)[C@H](CC)c2ccccc2)Nc2ccc(F)cc2)n1", "% Inhibition": 5, "Z score": -0.65},
      {"smiles": "Cc1ncc(C(=O)NS(=O)(=O)c2c(C)nn(C)c2C)s1", "% Inhibition": -3, "Z score": 0.33},
      {"smiles": "Cc1cc(C)cc(C2(C(=O)Nc3cccc(-n4c(C)c[nH]c4=O)c3)CCC2)c1", "% Inhibition": -6, "Z score": 0.81},
      {"smiles": "O=C(CC1(N2Cc3ccccc3C2=O)CCOCC1)NC1CCCCCCC1", "% Inhibition": -9, "Z score": 1.31},
      {"smiles": "Cc1cc(=O)c(C(=O)N2C[C@@H]3CC[C@H]2CN(C(=O)c2ccncc2)C3)c[nH]1", "% Inhibition": -6, "Z score": 0.71},
      {"smiles": "N[C@@H](C(=O)O)c1ccc(F)c(Cl)c1", "% Inhibition": -7, "Z score": 1.11},
      {"smiles": "Cc1n[nH]c2c1CN(C(=O)c1ccc3c(c1)OCC(=O)N3)CC2", "% Inhibition": 0, "Z score": 0.06},
      {"smiles": "O=C(C[C@@H]1NC(=O)N(C2CCCCC2)C1=O)NCCc1c[nH]c2ccccc12", "% Inhibition": 8, "Z score": -0.81},
      {"smiles": "Cc1ccnc(N2CC[C@H](c3ccccc3C(=O)O)C2)n1", "% Inhibition": -7, "Z score": 0.82},
      {"smiles": "COCc1ccc(C(=O)N2CCO[C@@H](Cc3ccccc3Cl)C2)o1", "% Inhibition": -9, "Z score": 1.65},
      {"smiles": "O=C(NCc1ccccc1)c1cn(C[C@@H]2CC(F)(F)CN2C(=O)CCn2cccn2)nn1", "% Inhibition": 32, "Z score": -3.61},
      {"smiles": "CN(Cc1csc(-c2ccccc2)n1)C(=O)C[C@H]1C(=O)N(C)C(=O)N1C", "% Inhibition": -3, "Z score": 0.47},
      {"smiles": "Cc1ccnc(NCCc2nc(-c3cccnc3)n[nH]2)n1", "% Inhibition": 4, "Z score": -0.64},
      {"smiles": "N#Cc1ccsc1NC(=O)c1nc(C2CC2)n(-c2ccccc2)n1", "% Inhibition": 2, "Z score": -0.34},
      {"smiles": "O=C(c1c(F)cccc1Cl)N(CC(F)(F)F)C1CCOCC1", "% Inhibition": -10, "Z score": 1.12},
      {"smiles": "CCOCCC(=O)NCCc1ncnn1C", "% Inhibition": -3, "Z score": 0.36},
      {"smiles": "CN1CCN(C(=O)c2coc(Br)c2)c2ccccc2C1", "% Inhibition": -13, "Z score": 2.05},
      {"smiles": "O=C(Nc1cccnc1-n1cccn1)c1ccc2ncsc2c1", "% Inhibition": 7, "Z score": -0.92},
      {"smiles": "Cn1cc(Cl)cc1C(=O)NC[C@H]1CC[C@H](CO)CC1", "% Inhibition": 2, "Z score": -0.3},
      {"smiles": "COc1ccc(Br)c(CN(C)C(=O)Cc2ccncc2)c1", "% Inhibition": 1, "Z score": -0.11},
      {"smiles": "Cc1cc(Br)c2c3c(nc(-c4ccccc4)nc13)-c1ccccc1C2=O", "% Inhibition": -1, "Z score": 0.26},
      {"smiles": "O=C(Cn1nc(C2CC2)n(-c2ccccc2)c1=O)N1CCC(Cc2ccccc2)CC1", "% Inhibition": 6, "Z score": -0.65},
      {"smiles": "O=C1NC(=O)C2(CCN(C(=O)c3cc(Cc4ccccc4)ccc3O)CC2)N1", "% Inhibition": -3, "Z score": 0.41},
      {"smiles": "COc1ccc(CCC(=O)N(Cc2ccco2)C2CCOCC2)cc1", "% Inhibition": -7, "Z score": 1.09},
      {"smiles": "O=C(c1cc(-c2ccc(Cl)s2)nc2ccccc12)N1CCN(Cc2ccc3c(c2)OCO3)CC1", "% Inhibition": -8, "Z score": 0.7},
      {"smiles": "O=c1[nH]c2ccccc2n1C1=NCCN1", "% Inhibition": -36, "Z score": 4.25},
      {"smiles": "COc1ccc(C)cc1NC(=O)CN1CCC[C@@H]1CN1CCCC1", "% Inhibition": 32, "Z score": -3.3},
      {"smiles": "C[C@H](c1cnccn1)c1noc(C2(c3cccc(OC(F)(F)F)c3)CCC2)n1", "% Inhibition": 3, "Z score": -0.29},
      {"smiles": "Cc1cnc(CN[C@@H](C)c2cccc(NC(=O)c3ccccc3)c2)o1", "% Inhibition": 0, "Z score": 0},
      {"smiles": "CCOC(=O)c1cc(-c2ccc(F)cc2)n(C2CCN(C(=O)c3cccc(C)c3)CC2)n1", "% Inhibition": -12, "Z score": 1.65},
      {"smiles": "CN(C)C[C@@H](O)CNc1ccc2cc(Cl)ccc2n1", "% Inhibition": -7, "Z score": 0.88},
      {"smiles": "c1ccc2c(N3CCC[C@H](c4nccn4CC4CC4)C3)ccnc2c1", "% Inhibition": -3, "Z score": 0.41},
      {"smiles": "Cc1nnc(NC[C@@H](O)CCc2ccccc2)c(C#N)c1C", "% Inhibition": -8, "Z score": 1.26},
      {"smiles": "N#Cc1cnn(C(=O)COc2ccc(-c3ccccc3)cc2Cl)c1N", "% Inhibition": -2, "Z score": 0.22},
      {"smiles": "CCN(Cc1ccc2[nH]ccc2c1)S(=O)(=O)CC1CCOCC1", "% Inhibition": -14, "Z score": 1.52},
      {"smiles": "Fc1ccc([C@@H](NCc2nnc3ccccn23)c2ccccc2)nc1", "% Inhibition": -19, "Z score": 2.06},
      {"smiles": "CCCc1noc(-c2ccc3nnc(CC(=O)Nc4ccc(Cl)cc4)n3c2)n1", "% Inhibition": -11, "Z score": 1.72},
      {"smiles": "Cc1ccc(-c2nc(Cc3ccc4c(c3)OCO4)n(C(C)(C)C)n2)nn1", "% Inhibition": -3, "Z score": 0.45},
      {"smiles": "O=C(c1cc(C(F)(F)F)ccc1Cl)N1CC[C@H](N2CCC(O)CC2)[C@@H](O)C1", "% Inhibition": 6, "Z score": -0.76},
      {"smiles": "Cc1csc(CN2CCC(NC(=O)N3CCOCC3)CC2)n1", "% Inhibition": 11, "Z score": -1.33},
      {"smiles": "O=C(Nc1ccns1)N[C@@H]1c2ccccc2CC[C@@H]1O", "% Inhibition": -6, "Z score": 1.24},
      {"smiles": "Cc1ccc(CN2CCC(F)(C(=O)N3CCOCC3)CC2)o1", "% Inhibition": -9, "Z score": 1.21},
      {"smiles": "COc1ccc(NC(=O)Cn2c(N3CCCCC3)nc(C)cc2=O)cc1OC", "% Inhibition": -4, "Z score": 0.41},
      {"smiles": "Cc1cccc(S(=O)(=O)N[C@H]2C[C@H](c3cc(N4CCCC4)ncn3)C2)c1", "% Inhibition": -9, "Z score": 1.46},
      {"smiles": "CCC(=O)N1C[C@H](NC(=O)OC(C)(C)C)[C@@H](c2cccc(F)c2)C1", "% Inhibition": 14, "Z score": -1.64}
    ]}
  ]
}
